Whole data set: some 81,000 sequences, median “one-hybrid fitness for binding parS DNA” near -0.17, cut for the highest 2% near 0.51. This is one part of the list.
B1: Caulobacter ParB omega fusion; a variant is named by its letters at X, in order, B8GW30 (parent)
chain: MESVVVGEPGMSEGRRGLGRGLSALLGEVDAAPAQAPGEQLGGSREAPIEILQRNPDQPRRTFREEDLEDLSNSIREKGVLQPILVRPSPDTAGEYQIVAGERAWRAAQRAGLKTVPIMVRELDDLAVLEIGIIENVQRADLNVLEEALSYKVLMEKFERTQENIAQTIGKSXSHVANXMRLLXLPDEVQSYLVSGELTAXHARAIAAAADPVALAKQIIEGGLSVRETEALARKAPNLSAGKSKGGRPPRVKDTDTQALESDLSSVLGLDVSIDHRGSTGTLTITYATLEQLDDLCNRLTRGI

Variants of: B1
Assay: one-hybrid fitness for binding parS DNA (scaled: cognate 1, non-cognate 0); higher = stronger binding
Settings: with parS DNA site
Procedure, shortened: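 Fitness here means the log change in variant-to-wild-type read ratio between plasmids sequenced before and after selection. That scale was set so cognate equals 1 and non-cognate equals 0. The selection was a bacterial one-hybrid screen of Caulobacter ParB libraries, four specificity codons randomised, in E. coli USO carrying a HIS3 reporter with the site 19 bp from the promoter, grown 48 hours at 37°C on M9-minus-histidine with 0.1 mM IPTG and 5 mM 3-AT.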

one-hybrid fitness for binding parS DNA, 0.583:
RRAN

one-hybrid fitness for binding parS DNA, 0.217:
NWLM

one-hybrid fitness for binding parS DNA, 0.475:
RCQN

one-hybrid fitness for binding parS DNA, 0.359:
RNAY

one-hybrid fitness for binding parS DNA, 0.234:
RIGF

one-hybrid fitness for binding parS DNA, 0.235:
RLSW

one-hybrid fitness for binding parS DNA, ≤ 0.2:
IIIS
QGRC
CLSA
IHMV
QGNT
VQFE
AANQ
SLAV
YNAT
TYCV
PNGP
GMDL
NFLS
VVVS
YIHS
QMWC
CQHK
GHTY
ISTA
WASA
SCHT
QPGY
QNKS
APIR
PLIT
KILF
SVRR
WMKG
GPHL
THWT
TNGR
MSNR
TAMA
FSQT
QLIQ
WMQR
GAME
RDQS
TRDC
PALW
RSNK
RGQD
KGRD
NLQS
VCVS
GLSH
APCD
MRKA
GTRY
CIMR
MSAW
APFA
KAMR
ANPC
ISDG
AFTD
AKTM
KPTW
SMQC
CHYC
VRHA
ERLI
NQLY
QYRF
VYKS
MTNR
SYVV
ENQV
HKER
PAAL
YMTN
KPRK
LVFC
IAKR
YTLS
SDDR
PSEL
GRST
TTGY
EPSK
HLHT
SIKA
NSAV
PKDT
TSYT
STHG
EETY
LEPG
PSFC
YRMV
HWAF
GCKW
IVSY
LHMD
NNVS
CKLV
GLAF
QLEG
PFNC
RHEK
VKWM
LPTG
TSIM
PLEM
YLET
VRDE
AQCV
LPSV
VIHS
QIWG
YLVD
VKHT
CRMA
SPSP
SATA
KVGY
AHAC
TGSG
AAIK
QRHQ
VAKT
LSMG
IVRG
ACAR
NPRV
QQCV
AIST
WSMG
SCTL
SWHQ
VFQS
NTNW
NRMI
ELFV
CTGP
MYPG
MHGR
YFPL
YNPA
QQFV
GTII
PLDL
LHVR
RQMR
PVKY
LTSY
QPTH
VNRE
LPRS
RSKK
FHRW
IPCS
QLYV
STCC
QWPM
QCYD
WERT
TVYL
LMVC
SCYF
QHAE
YPGY
VHTR
KTTN
IPLS
HSCH
HEKA
ERSC
DTNH
FCYE
FHIG
KTNF
SQVT
TAKT
FSGT
PMKR
HWER
ISNS
LSYL
YLGL
KSMR
RRIQ
SAYI
RFVL

one-hybrid fitness for binding parS DNA, 0.451:
RCLN

one-hybrid fitness for binding parS DNA, 0.247:
RLKH

one-hybrid fitness for binding parS DNA, 0.479:
RANY

one-hybrid fitness for binding parS DNA, 0.688:
RWCG

one-hybrid fitness for binding parS DNA, 0.204:
RAFH

Source: a collection of fitness landscapes (doi:10.1016/j.celrep.2020.107928)
